Measurements reported in patent US4006251A, “Bactericidal and fungicidal composition containing thiocarbanyl sulfenamides” (The B. F. Goodrich Company, priority 1973, dated 1977).

What was measured:
[1] = test system: Bacillus subtilis; experiment: Agar Screening Test and/or Penicillin Button Assay Test, (b); details: ppm by weight based upon the weight of the agar
[2] = test system: Asperigillus niger; experiment: Agar Screening Test and/or Penicillin Button Assay Test, (a); details: a fungus, ppm by weight based upon the weight of the agar
[3] = test system: Salmonella typhosa; experiment: Agar Screening Test and/or Penicillin Button Assay Test, (d); details: ppm by weight based upon the weight of the agar
[4] = test system: Staphylococcus aureus; experiment: Agar Screening Test and/or Penicillin Button Assay Test, (c); details: ppm by weight based upon the weight of the agar

Compound | lowest concentration that prevents growth or sporulation of the organism [1] | lowest concentration that prevents growth or sporulation of the organism [2] [ppm] | lowest concentration that prevents growth or sporulation of the organism [3] | lowest concentration that prevents growth or sporulation of the organism [4]
CCCCN(CCCC)C(=S)SN(C1CCCCC1)C1CCCCC1 [C, N,N-dibutylthiocarbamyl-N',N'-dicyclohexylsulfenamide] | > 10000 ppm | > 1000 | > 10000 ppm | > 10000 ppm
CN(C)C(=S)SN(C1CCCCC1)C1CCCCC1 [Compound A, N,N-dimethylthiocarbamyl-N',N'-dicyclohexylsulfenamide] | 10 ppm | 300 | 50 ppm | 20 ppm
CCN(CC)C(=S)SN(C1CCCCC1)C1CCCCC1 [Compound B, N,N-diethylthiocarbamyl-N',N'-dicyclohexylsulfenamide] | 50 ppm | > 1000 | 100 ppm | 20 ppm
S=C(SN1CCOCC1)N1CCOCC1 [Compound G, N-oxydiethylenethiocarbamyl-N'-oxydiethylenesulfenamide] | 50 ppm | 1000 | 100 ppm | 50 ppm
CN(C)C(=S)SNc1ccccc1 [Compound H, N,N-dimethylthiocarbamyl-N'-phenylsulfenamide] | 20 ppm | 300 | 50 ppm | 50 ppm
CCCCCCCCCCCCCCCCCCCCN(CCCCCCCCCCCCCCCCCCCC)C(=S)SN(C1CCCCC1)C1CCCCC1 [D, N,N-dieicosylthiocarbamyl-N',N'-dicyclohexylsulfenamide] | > 10,000 ppm | > 1000 | > 10,000 ppm | > 10,000 ppm
S=C(SN(C1CCCCC1)C1CCCCC1)N1CCOCC1 [E, N-oxydiethylenethiocarbamyl-N',N'-dicyclohexylsulfenamide] | 10,000 ppm | > 1000 | > 10,000 ppm | 10,000 ppm
S=C(SN(C1CCCCC1)C1CCCCC1)N1CCCCCC1 [F, N-hexamethylenethiocarbamyl-N',N'-dicyclohexylsulfenamide] | > 10,000 ppm | > 1000 | > 10,000 ppm | > 10,000 ppm
CCN(CC)C(=S)SNc1ccccc1 [I, N,N-diethylthiocarbamyl-N'-phenylsulfenamide] | 10,000 ppm | > 1000 | 10,000 ppm | 1000 ppm
